Values joined by “and” are separate entries in the source; they are usually repeats but may differ in a detail not shown here. Identical values can stand only once. About 180 (0.12%) of roughly 150,000 compounds were called active. The shares of active, inactive and inconclusive entries below differ from those in the screen. The call rests on the fitted dose curve; in most records, active means well fitted cell-killing curve with a large enough effect; inconclusive means small, poorly fitted or top-dose-only effect, or effect the other way; inactive means flat fitted curve, though single readings scatter. Potencies of inconclusive entries are doubtful fits and often do not repeat.
Assay: GF-AFC viability counterscreen for inhibitors of alpha-synuclein gene (SNCA) expression; further: nearly all actives have a fitted effect of over 30% in size
Conditions: HEK-293-SNCA-luc viability, GF-AFC fluorescence, 24 h; series mostly up to 57.1 µM
Summary of the method: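 HEK-293-SNCA-luc cells (1500/well) plated 24 h, then exposed 24 h to a dilution series; GF-AFC added 30 min at 37C, fluorescence 405/540 nm; normalised to medium-only and DMSO wells, Hill fit.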
Potency means the concentration at half of the fitted maximal effect; tags describe the fitted curve by direction and shape.

SMILES | Potency
Cc1ccc(C2Cn3nnc(C(=O)N4CCC(C(=O)Nc5ccc(F)cc5)CC4)c3CO2)cc1 (stereo unspecified) | inactive
CC(=O)c1ccc(NC(=O)N2Cc3[nH]cnc3C[C@H]2c2nc(-c3ccccc3)no2)cc1 | inactive
CCC(c1cccs1)N1C(=O)[C@H]2CN(S(=O)(=O)c3ccc(F)cc3)C[C@H]2C1=O (stereo partly specified) | inactive
Cc1[nH]c(C=C2C(=O)Nc3ccc(S(=O)(=O)N(C)c4cccc(Cl)c4)cc32)c(C)c1C(=O)N1CCN(C)CC1 | inconclusive: 19.2 µM [cytotoxic, partial curve]
Cc1ccc(C)c(OCC(=O)c2ccc3c(c2)N(CCCC(=O)NCC2CC2)C(=O)CO3)c1 | inconclusive: 12.6 µM [cytotoxic, partial curve, poor fit]
COC(=O)[C@@H]1Cc2c([nH]c3ccccc23)[C@H]2C[C@@H](NCCN3CCOCC3)C[C@@H](c3ccc(F)c(F)c3)N21 | inconclusive: 12.6 µM [cytotoxic, partial curve, poor fit]
COc1ccc(C(=O)N2CCN(c3nnc4cccc(C)n34)CC2)cc1F | inactive
CCOc1ccc(-c2nn(-c3ccccc3)cc2C2NC(=O)NC(C)=C2C(=O)OC(C)C)cc1 (stereo unspecified) | inconclusive: 39.8 µM [cytotoxic, single point]
Nc1ncnc2c1c(-c1cnc3[nH]ccc3c1)nn2C1CCCC1 | inconclusive: 215 nM [cytotoxic, full curve] and inconclusive: 2.38 µM [cytotoxic, full curve, poor fit]
Cc1ccc(C(=O)N2CCC3(CC2)CC(N(C(=O)NC(C)C)C2CC2)CCO3)cn1 (stereo unspecified) | inactive
COc1ccc(-c2nc(C(C)C)nc3c2CCN(C(=O)c2ccccc2Cl)CC3)cc1 | inconclusive: 44.7 µM [cytotoxic, partial curve, poor fit]
COc1ccc(NC(=O)[C@@H]2C[C@H](c3cccc(C(F)(F)F)c3)N(Cc3cnn(C)c3)C2)cc1 | inconclusive: 28.2 µM [cytotoxic, partial curve, poor fit]
FC(F)(F)c1ccc2nc([C@H]3CCN(Cc4ccccn4)C3)[nH]c2c1 | inactive
COCC(=O)NC1CCC12CCN(C(=O)c1ccc(C)nc1)CC2 (stereo unspecified) | inconclusive: 4.47 µM [cytotoxic, single point]
CCOc1ccc(NC(=O)c2ncoc2-c2ccco2)cc1 | inconclusive: 39.8 µM [rising, partial curve, poor fit]
Cc1c(CN2CCN(c3ncc(F)cn3)CC2)[nH]c2ccc(F)cc12 | inconclusive: 3.55 µM [cytotoxic, partial curve, poor fit]
